Measurements from CN112794906A (HEFEI HANKEMAB BIOTECHNOLOGY CO LTD, dated 2021).

Legend:
[1] = target: T1, 人4-1BB on CHO-K1-hu4-1BB cells (human, UniProt Q07011 24-255); experiment: flow cytometry on CHO-K1-hu4-1BB cells, goat anti-human FITC
T1 construct: whole, on cells

[2] = target: T2, 人4-1BB (human 4-1BB, SEQ ID No.3), coated in ELISA (human, UniProt Q07011 24-186); experiment: summary of the experiments (ELISA, FACS)
T2 construct: also called CD137; TNFRSF9

B1: scFvB60103 (Fc fusion)
scFv: QVQLQESGPGLVKPSETLSITCTVSGSSLTSYGVHWVRQPPGKGLEGLGVIWPGGSTNYNSALMSRLTISKDNSKSQVSLKMSSLTAADTAMYYCARVTGTWYFDVWGQGTTVTVSSGGGGSGGGGSGGGGSDIQMTQSPSSLSASLGDRVTISCSASQGISNYLNWYQQKPDGTVKLLIYYTSTLHSGVPSRFSGSGSGTDFTLTISSLQPEDVATYYCQQYSKLPWTFGGGTKLEIKDKRV[human IgG4 Fc with S228P (EU numbers) cut from this listing]
notes: Humanised from hybridoma antibody 37G10F4; scFv-Fc (human IgG4) expressed in Expi293 cells; also called scFv-Fc(人IgG4)形式的抗原结合片段; 单链抗体的融合抗体
- binding result [1]: binds
- binding result [2]: binds
